Laboratory results: PMC11286144
Numbering of substitutions follows the chain as printed. Names and notes keep the numbering of the source. Like-named read-outs stand apart in the source and are kept apart here.

Tests used:
[1] = substrate: O=c1cc(C(F)(F)F)c2ccc(OCc3ccccc3)cc2o1
[2] = substrate: O=c1cc(C(F)(F)F)c2ccc(OCc3ccccc3)cc2o1; assay: purified protein, by the assay type

B1: CYP3A4 (WT) (Homo sapiens) (protein)
chain: MALIPDLAMETWLLLAVSLVLLYLYGTHSHGLFKKLGIPGPTPLPFLGNILSYHKGFCMFDMECHKKYGKVWGFYDGQQPVLAITDPDMIKTVLVKECYSVFTNRRPFGPVGFMKSAISIAEDEEWKRLRSLLSPTFTSGKLKEMVPIIAQYGDVLVRNLRREAETGKPVTLKDVFGAYSMDVITSTSFGVNIDSLNNPQDPFVENTKKLLRFDFLDPFFLSITVFPFLIPILEVLNICVFPREVTNFLRKSVKRMKESRLEDTQKHRVDFLQLMIDSQNSKETESHKALSDLELVAQSIIFIFAGYETTSSVLSFIMYELATHPDVQQKLQEEIDAVLPNKAPPTYDTVLQMEYLDMVVNETLRLFPIAMRLERVCKKDVEINGMFIPKGVVVMIPSYALHRDPKYWTEPEKFLPERFSKKNKDNIDPYIYTPFGSGPRNCIGMRFALMNMKLALIRVLQNFSFKPCKETQIPLKLSLGGLLQPEKPVVLKVESRDGTVSGA
Q: B1 was tested. Which K0.5 [1] did it give?
A: 9.3 ± 0.4 µM

Q: And the kcat [1]?
A: 0.000417 ± 8.33e-05 s⁻¹

B2: K257A CYP3A4 (Homo sapiens; K257A) (protein)
chain: B1 chain with K257A
Q: What does the source list for B2?
A: K0.5 ([2]; other: K257A CYP3A4): 8.4 ± 0.5 µM; kcat ([2]; other: K257A CYP3A4): 0.0006 ± 0.000133 s⁻¹

B3: K266A CYP3A4 (Homo sapiens; K266A) (protein)
chain: B1 chain with K266A
Q: With B3 as the protein, how does the K0.5 ([2]; other: K266A CYP3A4) read?
A: 6.1 ± 0.1 µM

Q: And the kcat ([2]; other: K266A CYP3A4)?
A: 0.000533 ± 5e-05 s⁻¹
